Out of some 360,000 compounds screened, about 11,000 (3.1%) were called active. Inconclusive means that the source gave no clear call. Such entries were picked first, then a sample of the others. The call rests on the fitted dose curve; in most records, active means well fitted inhibition curve with a large enough effect; inconclusive means small, poorly fitted or top-dose-only effect; inactive means no such curve, though single readings can be large or run the other way. Potencies of inconclusive entries are left out as doubtful fits.
The molecules below were run against Schistosoma mansoni thioredoxin glutathione reductase (TGR) (UniProt Q962Y6) (assay: qHTS Assay for the Inhibitors of Schistosoma Mansoni Peroxiredoxins). Details: purified TGR, DTNB reduction, TNB absorbance 405 nm; series mostly up to 114 µM.
Procedure, shortened: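 Kinetic colorimetric format: TGR-catalysed, NADPH-driven DTNB reduction monitored via TNB absorbance. Enzyme dispensed at 20 nM; compound exposure 15 min at room temperature before reaction start.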
In the case of `Cc1cc(C(=O)CCl)c(C)n1Cc1ccco1`, the Potency is reported as active: 3.98 µM. For `CN(C)C(CNc1ncnc2sc3c(c12)CCCCC3)c1ccco1` (configuration not stated), the Potency was inconclusive [inhibitor, partial curve]. In the case of `COc1ccc(/C=C/C(=O)c2ccccc2O)cc1CN1CCOCC1`, the Potency is reported as inconclusive [inhibitor, partial curve, poor fit]. With `CCOC(=O)c1c(NC(C)=O)c2c3c(sc2n1Cc1ccc(Cl)cc1)CCCC3` the Potency was “inactive”. With `COC(=O)Nc1sc2c(c1C(=O)NCc1ccco1)CCC2` the Potency was inconclusive [inhibitor, partial curve]. With `COc1ccc(-c2nn3c(-c4ccco4)nnc3s2)cc1OC` the Potency was inconclusive [inhibitor, full curve]. In the case of `O=C(CSc1nnc(CNc2ccc(F)cc2)n1Cc1ccccc1)NCc1ccco1`, the Potency is reported as inconclusive [inhibitor, partial curve]. In the case of `COc1ccc(Cn2nnnc2CN(Cc2cc3ccc(C)cc3[nH]c2=O)C2CCCC2)cc1`, the Potency is reported as inconclusive [inhibitor, partial curve]. `CC(C)c1cc(CNC(=O)CCc2nnc(CCCc3ccccc3)o2)on1` was tested, and the Potency was “inactive”. With `N#Cc1ccc2c(c1)NC(=O)C1CCCN21` (configuration not stated) the Potency was active: 20 µM. With `CCOC(=O)c1[nH]c(C)c(/C(O)=C2\C(=O)C(=O)N(CCN(C)C)C2c2ccco2)c1C` (configuration not stated) the Potency was active: 56.2 µM. In the case of `COCCNC(=S)NC(=O)c1ccc(C(C)(C)C)cc1`, the Potency is reported as active: 39.8 µM. For `CC(=O)c1ccc(-c2ccccc2)cc1`, the Potency was “inactive”. For `O=C(/C=C/c1ccccc1)NC(NC(=S)Nc1ccc(Cl)cc1Cl)C(Cl)(Cl)Cl` (configuration not stated), the Potency was inconclusive [inhibitor, partial curve]. `CN(C)CC(NC(=O)c1cccc(S(=O)(=O)Nc2ccc3c(c2)OCO3)c1)c1ccccc1` (configuration not stated) was tested, and the Potency was inconclusive [inhibitor, partial curve]. With `CN(CC(=O)Nc1ccc(F)cc1)C(=O)COc1ncnc2ccccc12` the Potency was inconclusive [inhibitor, single point]. `O=C(CSc1nc2c(sc3ccccc32)c(=O)n1CCCC(=O)NC1CCCC1)Nc1ccc(F)cc1` was tested, and the Potency was “inactive”. `CS(=O)(=O)c1oc(-c2ccc(F)cc2)nc1S(=O)(=O)c1ccc(Cl)cc1` was tested, and the Potency was active: 0.708 µM. `Cc1ccc(C2C3=C(NCCN=C3c3ccccc3)C(=O)N2c2ccccc2)cc1` (configuration not stated) was tested, and the Potency was inconclusive [inhibitor, single point]. `COc1ccc(/C=C\C(=O)NC2CC(=O)N(c3ccc(F)cc3)C2)cc1OC` (configuration not stated) was tested, and the Potency was inconclusive [inhibitor, single point]. `C/C(=N\NC(=O)Cc1ccccc1Cl)c1cccnc1` was tested, and the Potency was inconclusive [inhibitor, partial curve]. `CC(C)C(=O)NNC(=O)c1c(O)c2ccccc2[nH]c1=O` was tested, and the Potency was “inactive”. In the case of `COc1ccc(C2CC(c3ccccc3)=NN2C(=O)COC(=O)c2ccc(Cl)nc2)cc1` (configuration not stated), the Potency is reported as inconclusive [inhibitor, full curve, poor fit]. For `Cc1cc(NC(=O)COc2cccc3cccnc23)no1`, the Potency was inconclusive [inhibitor, partial curve]. `O=C1NC(=O)N(Cc2ccc(F)cc2)C(=O)/C1=C\c1ccc(N2CCCC2)cc1` was tested, and the Potency was active: 1.26 µM. With `COc1ccc(C(C)=O)cc1COC(=O)c1ccc2c(c1)OCCO2` the Potency was inconclusive [inhibitor, full curve, poor fit]. For `COc1cc(O)oc1C=Nc1ccc(Oc2ccccc2)cc1`, the Potency was inconclusive [inhibitor, partial curve]. For `Cc1cc2cc(C)c3nnc(SCC(=O)N4CCCc5ccccc54)n3c2cc1C`, the Potency was “inactive”. With `Cc1sc2nc(CN3CCN(c4ccc(O)cc4)CC3)[nH]c(=O)c2c1C` the Potency was inconclusive [inhibitor, partial curve]. In the case of `COC(=O)Cc1c(C)c2cc3c(c(C)c2oc1=O)OCN(CCc1ccccc1F)C3`, the Potency is reported as inconclusive [inhibitor, full curve]. `CC(=O)NC(CC(=O)OC(C)C(=O)Nc1ccc(Cl)cn1)c1ccccc1` (configuration not stated) was tested, and the Potency was “inactive”. In the case of `Cc1ccc(Nc2cc(C)c(O)c(C)c2)cc1`, the Potency is reported as inconclusive [inhibitor, partial curve, poor fit]. For `Cc1cc(-c2ccccc2)nc(N(C)N)c1S(C)(=O)=O`, the Potency was inconclusive [inhibitor, single point]. For `O=C(NCc1ccco1)C(=O)NCC1OCCN1C(=O)c1ccc(Cl)cc1` (configuration not stated), the Potency was active: 17.8 µM. For `CC(=O)NNC(=S)NC(=O)C(c1ccccc1)c1ccccc1`, the Potency was “inactive”. In the case of `COC(=O)CCCC1=CC2=C(c3ccccc3)C(=O)C(C)(OC(=O)C3CCCC3)C(=O)C2=CN1CCc1c[nH]c2ccccc12` (configuration not stated), the Potency is reported as active: 8.91 µM. `O=C(CSc1ccc(Cl)cc1)NC(=O)c1ccccc1` was tested, and the Potency was “inactive”. In the case of `CC1(C)Cc2ccccc2C(/C(=N\Nc2cccc(Cl)c2)C(N)=O)=N1`, the Potency is reported as “inactive”. For `CC(C)CC(=O)NC(=S)Nc1ccccc1F`, the Potency was inconclusive [inhibitor, full curve]. `Cc1nccn1S(=O)(=O)c1cc([N+](=O)[O-])ccc1Cl` was tested, and the Potency was inconclusive [inhibitor, partial curve]. For `Cc1ccc(CSCc2ccc(C(=O)NC3CC3)o2)cc1`, the Potency was “inactive”. With `CC1=NOC(=O)/C1=C\c1ccc(-c2ccc(Br)cc2)o1` the Potency was inconclusive [inhibitor, full curve, poor fit]. With `O=S1(=O)C=C(Sc2nc3ccccc3s2)c2ccccc21` the Potency was active: 2.24 µM. For `Cc1nc(SCC(=O)N2CCN(C(=O)c3cccs3)CC2)c2c(C)c(C)sc2n1`, the Potency was “inactive”. In the case of `Cc1cc[n+](-c2ccccc2)c2ccccc12`, the Potency is reported as inconclusive [inhibitor, partial curve]. In the case of `Cc1c(N2C(=O)/C(=C3\C(=O)N(CC(=O)O)c4ccccc43)SC2=S)c(=O)n(-c2ccccc2)n1C`, the Potency is reported as inconclusive [inhibitor, partial curve]. In the case of `CCC(=O)N(Cc1cc2ccc(C)cc2[nH]c1=O)c1ccccc1OC`, the Potency is reported as active: 89.1 µM.

— PubChem BioAssay AID485364 (National Center for Advancing Translational Sciences (NCATS), 2010)
Further: nearly all actives have a fitted effect of over 60% in size.
Potency means the concentration at half of the fitted maximal effect; tags describe the fitted curve by direction and shape.
